Among all 45,000 compounds or so, about 200 (0.44%) were called active. Not shown: some 7% with an inconclusive outcome. Calls come from the whole dose curve; as a rule, active = well fitted activation curve with a large enough effect; inconclusive = small, poorly fitted or top-dose-only effect; inactive = no such curve, though single readings can be large or run the other way. This is one part of the list.
Assay: qHTS of TDP-43 Inhibitors: NCGC Sytravon Library Screen; note: 0% is about no effect; nearly all actives have a fitted effect of over 55% in size
Conditions: yeast TDP-43 toxicity rescue, BacTiter-Glo growth, 24 h; series mostly up to 46.1 µM; growth rescue (activation): at the top concentration
How it was run: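 TDP-43-expressing yeast, pregrown in raffinose, seeded at OD600 0.02 in galactose medium with compound for 24 hr at 30 deg C. Growth read by BacTiter-Glo luminescence, so rescue of toxicity appears as activation.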

SMILES	growth rescue (activation)
CCOC(=O)CCC(=O)N(CCN(C(=O)CCC(=O)OCC)c1ccccc1)c1ccccc1	inactive: 10.6%
O=C(/C=C/Nc1ccc(F)c(Cl)c1)c1ccco1	inactive: 24.8%
O=C(COc1cc(O)c2c(=O)c3ccccc3oc2c1)OCc1ccccc1	inactive: -1.62%
O=C(NCCc1c[nH]c2ccccc12)C1CCN(S(=O)(=O)c2ccc(F)cc2)CC1	inactive: 3.25%
N#Cc1ccccc1NC(=O)CSc1cn[nH]n1	inactive: 2.86%
COc1cccc(C2c3[nH]c4ccccc4c3CCN2C(=O)Cn2cncn2)c1OC (centres undefined)	inactive: 6.35%
COc1ccc(N(CC(=O)NC2CC3CCC2C3)S(=O)(=O)c2ccc(C)cc2)cc1OC (centres undefined)	inactive: -2.34%
CCOC(=O)C1CCCN(C2=NC(=O)/C(=C/c3ccc(O)c(OCC)c3)S2)C1 (centres undefined)	inactive: 17.3%
Cc1cc2oc(=O)c(CC(=O)NCCCN(C)C)c(C)c2c2occ(C(C)(C)C)c12	inactive: -6.1%
CSc1ccc(C(=O)C2CCCN(Cc3ccc(N4CCNC4=O)cc3)C2)cc1 (centres undefined)	inactive: 7.04%
CCOC(=O)C1(CCOC)CCN(C(=O)c2ccccc2-c2cccc(C)c2)CC1	inactive: 12.7%
COc1ccc(-c2cnc3c(NC=O)cc(-c4cccc(NS(C)(=O)=O)c4)cn23)cc1OC	inactive: 2.38%
CC(C)CNC(CC(=O)Nc1cccc([N+](=O)[O-])c1)C(=O)O (centres undefined)	inactive: 22%
O=C1CCC(C(=O)N2CCCCO2)CN1Cc1ccc(Cl)cc1 (centres undefined)	inactive: -2.91%
Cc1cc2oc(C(=O)NCCc3ccc(S(N)(=O)=O)cc3)cc(=O)c2cc1C	inactive: -4.36%
O=C(COC(=O)CCOc1ccccc1)NCCC1=CCCCC1	inactive: -3.42%
CC(=O)Nc1ccc(Nc2nc(-c3sc(NC(C)=O)nc3C)cs2)cc1	inactive: 4.36%
CN(Cc1ccccc1)C(=O)COC(=O)c1ccc[nH]c1=O	inactive: -10.1%
O=C(CN1CCN(S(=O)(=O)c2ccc(Br)cc2)CC1)N/N=C/c1cccnc1	inactive: 7.9%
O=C(N/N=C/c1ccccn1)c1cc(C2CC2)[nH]n1	inactive: 8.39%
O=C(NCCS(=O)CCNC(=O)C(F)(F)F)C(F)(F)F	inactive: 9.5%
Cc1ccc(NCC(=O)N=Nc2c(O)[nH]c3ccc([N+](=O)[O-])cc23)cc1	inactive: -13.3%
CCC(c1nnc(SCC(=O)Nc2ccc(S(N)(=O)=O)cc2)n1Cc1ccccc1)N(C)C (centres undefined)	inactive: -6.82%
COc1cc(CCC(=O)OCC(=O)Nc2ccc(F)c(F)c2F)cc(OC)c1OC	inactive: 8.93%
O=c1c(-c2ccc([N+](=O)[O-])cc2)coc2c(O)c(O)ccc12	inactive: -5.72%
O=C(NCc1ccccc1)C1CCCN(C(=O)NCc2ccccc2)C1 (centres undefined)	inactive: 8.42%
O=c1c2ccccc2sc2ccc(Cl)cc12	inactive: -4.59%
Cc1cc(C)cc(NC(=O)C(c2ccccc2)N2CCCC2)c1 (centres undefined)	inactive: 4.95%
COc1ccc(C(c2c(NC(=O)c3ccco3)sc(C)c2C)N2CCOCC2)cc1 (centres undefined)	inactive: 14.3%

Source: PubChem BioAssay AID1347073 (National Center for Advancing Translational Sciences (NCATS), 2019)
